Test results taken from paper PMC12136788.
This is one part of the list.

B1: 90437560_90438655_5519_CDS_ENSG00000112159_ENST00000369393|human|control|control (ssRNA)
RNA: GGGAGUUCUACAGUCCGACGAUCCACCACCCAAUGGCCUGCCUUCAAAGCUGCCAGUAAGGGGCCAUCACGCCAGGCAAACUCUCCUCCCUUGCCACCUUCAACAGGUAGAUCUGCUCCAAACAGGUCUGUGAUGUCCGUUUGCAACAGAGGAUUGAGCAUCA
B2: chr14:52780626:52780627:-_ENSMUSG00000035726_ENSMUST00000046709|mus_hu|FALSE|FALSE (ssRNA)
RNA: GGGAGUUCUACAGUCCGACGAUCAGACAGUGGCAAUUUUGCCUUCUAUCAUUGUACCAUGUGUGCAUUGUAUGGAGAAAAUAACCGAGCCAGGGAGUAUCACUGCUUCUUAUGUCUUCCAAGGCAGCAGAUAUACCUCAGAAUCAACAGAGGAUUGAGCAUCA
B3: chr5:179045309:179045310:-_ENSG00000169045_ENST00000393432|hu_mus|FALSE|FALSE (ssRNA)
RNA: GGGAGUUCUACAGUCCGACGAUCAUAAUGAGUUCUAACUUCAGCUCGACUGCUCUUAAAUAUUUCAAUAUACCUGUGCCCUAUUCUUUCCUUGUGUUUCUUUAGAGCCUUUUCAGCUAUUUCCUGUGAAGCAAACUGCACGAACAACAGAGGAUUGAGCAUCA
B4: chrX:71549762:71549763:+_ENSMUSG00000019087_ENSMUST00000019231|mus_mus|mus_mus_mus_hu_False|18_58 (ssRNA)
RNA: GGGAGUUCUACAGUCCGACGAUCAAACCCGUGUACUUCUUAUUGUUAGCACAACAUCACCAGAAAACGAUAACGACAGCUAAGCUGGACAGACAGUUAAGUAGUACUUCCACACUCCGCAAAUUCAGGAGCCCUAUAACCUUACAACAGAGGAUUGAGCAUCA
B5: chrX:71549400:71549401:+_ENSMUSG00000019087_ENSMUST00000019231|mus_hu|mus_mus_mus_hu_False|68_88 (ssRNA)
RNA: GGGAGUUCUACAGUCCGACGAUCGCAGUAGGAAGAGGGAAGCUCUUCAUCCACUGUCGCUGCAGGGAGAAACAUGAACAACACGGACACCGUCCCACCCUCAACCCCCCCACUGGCACAGGGUCACACAAUCUGGGUCAAAGACAACAGAGGAUUGAGCAUCA
B6: 127009584_127009886_5678_CDS_ENSMUSG00000040249_ENSMUST00000049149|mouse|control|control (ssRNA)
RNA: GGGAGUUCUACAGUCCGACGAUCCCAGUAGAGUUUGCUCUCAGGGAAGUCAAUGGCCAACCCCACAGGGCCCUUCUGGCCACUGAAGAGCAGAGUGUGGUUGCUCCCAUCCAUGUUGGCCAUGCUGAUGUUGUCCCCAUCAGUCAACAGAGGAUUGAGCAUCA
B7: 15136406_15136526_5181_CDS_ENSMUSG00000046111_ENSMUST00000161132|mouse|control|control (ssRNA)
RNA: GGGAGUUCUACAGUCCGACGAUCAGUCUCUCUGUGUCUUUGGAUUUGCUGCUGUAAGGAUGUCUGUCUCUGCACAAGCAAUUCUUCUUGGGCUUUUUGCCUAGAGUGUAGAGUUUCUCUUUGUAGAUUCAGCUGCUUCUGAAGCAACAGAGGAUUGAGCAUCA
B8: 44621135_44621403_292_3pUTR_ENSG00000158604_ENST00000457408|human|control|control (ssRNA)
RNA: GGGAGUUCUACAGUCCGACGAUCAAGCGGCCCUCCGAGCCGUACUGCCGGGACAGCACCACCUUGCCGUCGGGGUCCUUCACUUCCACGUGCAUGCCCAGGCCAGGGGUCGAGGGCAGGAAGACCUCCUUCUGCUUAUCCCACCAACAGAGGAUUGAGCAUCA
B9: chr9:110451855:110451856:+_ENSMUSG00000044791_ENSMUST00000153838|mus_hu|FALSE|FALSE (ssRNA)
RNA: GGGAGUUCUACAGUCCGACGAUCAACUGGCAUAGACAUGAGUUUAUCUUGGUGUGGUGACACCAGAGGUUCUGUUUCUCUAAAUGGGCUUUCUGACUUCUUAUGCAGCAUGCAGGUAUCAUCCAAGUCUUUUUCUUUGCACCUCAACAGAGGAUUGAGCAUCA
B10: chrX:140365796:140365797:-_ENSMUSG00000031285_ENSMUST00000033642|mus_mus|mus_mus_mus_hu_False|28_58 (ssRNA)
RNA: GGGAGUUCUACAGUCCGACGAUCCUUCUCAUUACUCAGUGCCUGCAAGGUUCUGGUUCGGUAGAAGCUACAGUGGGCACUAUGAGUGGGGCUAGGCAACCCAUUCAUCCGUGACCCUCGCAUGUUCCUGGAUGUCUUAUCUCUCAACAGAGGAUUGAGCAUCA
B11: chr2:232597714:232597715:-_ENSG00000156973_ENST00000287600|hu_hu|FALSE|FALSE (ssRNA)
RNA: GGGAGUUCUACAGUCCGACGAUCGAAAAGUCUCACUCUGGAUGUGCUUACAAGAAGAUCGUCGUCAAAAAACUUUGUUUCUAUGAUAACGUUCCCAGUUAAGACGCUUGCUGGCAUCAUCUGGGACUCGGGUGCUGCCUCUAUCAACAGAGGAUUGAGCAUCA
B12: 71035246_71035366_2326_3pUTR_ENSMUSG00000052040_ENSMUST00000063694|mouse|control|control (ssRNA)
RNA: GGGAGUUCUACAGUCCGACGAUCGGCAGAAGCAGGACAGAAGAGUGGGUAAUGCAACAGUGUGGAACUGUGGGUCUGCUAAGUCUGUACCCAAGGUUCUGAGAAAGUCAUUCCCACAAUUUUCAUCCGGUGUCCCCCAGAGCACAACAGAGGAUUGAGCAUCA
B13: chr22:38884116:38884117:-_ENSG00000100201_ENST00000396821|hu_hu|FALSE|FALSE (ssRNA)
RNA: GGGAGUUCUACAGUCCGACGAUCAUAAUCCUCUGAGCUGUUUGGAUAGUCAUAGUUGAUCACAAACUUGACAUCUUCCACAUCUAGCCCACGGGAGGCUACAUCUGUAGCAAUAAGGAUGGGUGCCUUUCCAGAACGGAACUCCAACAGAGGAUUGAGCAUCA
B14: chr2:198351390:198351391:-_ENSG00000144381_ENST00000345042|hu_hu|hu_hu_hu_mus_False|28_58 (ssRNA)
RNA: GGGAGUUCUACAGUCCGACGAUCUCAUUCCCACCCUCCACAGAAAGGCUGCUUCUGAACUCUCAUGUGGUGACACAGCACUAAAAUCCUGAUGCUCACAGAACAGUAGUAAAAAUGCAGUGAUUUAAGUUGAAAGCAGGACACCAACAGAGGAUUGAGCAUCA
B15: chr3:176740097:176740098:-_ENSG00000177565_ENST00000430069|hu_mus|hu_hu_hu_mus_True|78_108 (ssRNA)
RNA: GGGAGUUCUACAGUCCGACGAUCUGUUUUUUACACCACAAAAGGAGGCACUUUCAGUAUCUGUAAAAGGUGUUUAGUCCUAAAACAUACUCACCUAGAGGAUAACUCAGGAAAACAAUCUGUUACACUCUAAGACCUACUCCACAACAGAGGAUUGAGCAUCA
B16: chr4:57314706:57314707:+_ENSG00000128050_ENST00000264221|hu_mus|hu_hu_hu_mus_True|18_18 (ssRNA)
RNA: GGGAGUUCUACAGUCCGACGAUCCAGAAUUUCAAAAAUAGCUUGUGUGGCAUGACUCAUGAUGUCCACUUCAGUCUGCCCUAUAACAAGGCCAGCAAAACAGAAUUUUGCAGCAAUCAGCUGUUCCUCAGACCACUGUGGAUCCAACAGAGGAUUGAGCAUCA
B17: chr11:77336104:77336105:-_ENSG00000074201_ENST00000525064|hu_mus|FALSE|FALSE (ssRNA)
RNA: GGGAGUUCUACAGUCCGACGAUCCUCACACAUUGCUGUGAACAUCGCCUCCAAUGCUGACUUAUCACUGGGCACAAAUCGAAAUUCAGAAAUGGGUUCAACAUCAUCAUUGUCUUCCUCAUCUUCAUCAGAGAGAGGUUCUUUCAACAGAGGAUUGAGCAUCA
B18: chrX:69798090:69798091:-_ENSMUSG00000031343_ENSMUST00000055966|mus_mus|mus_mus_mus_hu_False|18_48 (ssRNA)
RNA: GGGAGUUCUACAGUCCGACGAUCAAGUCCCCGGGUUCUUGUCGUCUUGAUUCCCCUUGACCAGUGGUUCCAGGGAGAAUAUUAAUCAGGAGAAGAAUCCCAAGGCUGGUCAUGUAAAAGUGCCACAUUUGUGUGAUUAUCAUCCAACAGAGGAUUGAGCAUCA
B19: chrX:153670519:153670520:+_ENSG00000203879_ENST00000447750|hu_hu|FALSE|FALSE (ssRNA)
RNA: GGGAGUUCUACAGUCCGACGAUCAGCCGGCUCCACCUCCUUUUCAGGGUCCGUGGUCUCCACAGUAGUGCUGGCAAUAGCUAUGUACUUGCCCUGGGCCGCCACGUUGUGUGCAUAGGAGAUCAUGCACACGUAGAUGUCUGACAACAGAGGAUUGAGCAUCA
B20: chr2:25961539:25961540:-_ENSG00000143970_ENST00000336112|hu_hu|motif|central (ssRNA)
RNA: GGGAGUUCUACAGUCCGACGAUCCACUCCUCACCCCCAUUAUAGCAAAUCACUUCACCAGAGAGUUAUUUAUGGCUCUCGGAGGUGGAGAAAGGCAAUAAUAAACAACAGAAUGUUAACUGUCAGGUCAUUAAUAUGUAUGACCAACAGAGGAUUGAGCAUCA
B21: chr11:10819154:10819155:-_ENSG00000110321_ENST00000525681|hu_hu|FALSE|FALSE (ssRNA)
RNA: GGGAGUUCUACAGUCCGACGAUCCUUAUGAUGUAAUUAUUGCAUGCUGCUAAUAUACUAUCUAAACAUUAAAGAUACUCCUAAAAUAUUUGAUGGUAGACUAUGAUUAAGACAUUACACUACAAAAAAACCUUAUGCAGAAGGCAACAGAGGAUUGAGCAUCA
B22: chr3:131208901:131208902:-_ENSG00000114686_ENST00000264995|hu_mus|FALSE|FALSE (ssRNA)
RNA: GGGAGUUCUACAGUCCGACGAUCCUGUCACAUGAAAGAUUUUAUGUAUCUGUUUUGGUGGCAGUCCAAGAUCUCGGUAAAAUUCCAAUCUAGAGUCAGGUUUAUAGAAGCGUGACACGGUUUUCCCGCCCACUGUCAGGGCUGCAACAGAGGAUUGAGCAUCA

Target: T1, UNK ZnF1-3 (human, UniProt Q9C0B0 31-174)
T1 sequence: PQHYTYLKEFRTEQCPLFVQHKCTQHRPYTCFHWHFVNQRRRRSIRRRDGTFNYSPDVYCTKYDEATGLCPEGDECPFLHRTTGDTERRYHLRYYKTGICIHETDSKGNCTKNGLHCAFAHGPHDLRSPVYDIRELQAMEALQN
Experiment: nsRBNS (natural sequence RNA bind-n-seq); RBNS binding buffer (assumed for nsRBNS): 25 mM Tris pH 7.5, 150 mM KCl, 3 mM MgCl2, 0.01% Triton X-100, 500 ug/ml BSA, 20 U/ml SUPERase-In, 4 C; UNK is unkempt and MSI1 is Musashi-1; names of the RNAs are library labels; protein concentration not given here; high values mean tight binding

Q: With B1 as the binder, how does the binding signal read?
A: 1.16 enrichment R

Q: For B2, which binding signal is on record?
A: 0.877 enrichment R

Q: B3 was tested. Which binding signal did it give?
A: 0.789 enrichment R

Q: With B4 as the binder, how does the binding signal read?
A: 1.08 enrichment R

Q: How did the binding signal turn out when B5 was run?
A: 1.15 enrichment R

Q: With B6 as the binder, how does the binding signal read?
A: 0.63 enrichment R

Q: With B7 as the binder, how does the binding signal read?
A: 0.392 enrichment R

Q: With B8 as the binder, how does the binding signal read?
A: 1.12 enrichment R

Q: B9 was tested. Which binding signal did it give?
A: 0.838 enrichment R

Q: B10 was tested. Which binding signal did it give?
A: 0.549 enrichment R

Q: How did the binding signal turn out when B11 was run?
A: 0.832 enrichment R

Q: Which binding signal does the source give for B12 here?
A: 0.986 enrichment R

Q: How did the binding signal turn out when B13 was run?
A: 0.625 enrichment R

Q: B14 was tested. Which binding signal did it give?
A: 1.21 enrichment R

Q: B15 was tested. Which binding signal did it give?
A: 0.907 enrichment R

Q: With B16 as the binder, how does the binding signal read?
A: 1.05 enrichment R

Q: With B17 as the binder, how does the binding signal read?
A: 1.07 enrichment R

Q: With B18 as the binder, how does the binding signal read?
A: 0.678 enrichment R

Q: How did the binding signal turn out when B19 was run?
A: 1.11 enrichment R

Q: For B20, which binding signal is on record?
A: 1.2 enrichment R

Q: For B21, which binding signal is on record?
A: 1.02 enrichment R

Q: B22 was tested. Which binding signal did it give?
A: 0.9 enrichment R
